Reference: the supplement of paper PMC12217912
Some of the results follow. The full chains were built here from the parent and the listed change. Values near 0.05 are background.

B1: TEV protease; numbered along this chain (parent)
chain: MGESLFKGPRDYNPISSSICHLTNESDGHTTSLYGIGFGPFIITNKHLFRRNNGTLVVQSLHGVFKVKDTTTLQQHLVDGRDMIIIRMPKDFPPFPQKLKFREPQREERICLVTTNFQTKSMSSMVSDTSCTFPSGDGIFWKHWIQTKDGQCGSPLVSTRDGFIVGIHSASNFTNTNNYFTSVPKNFMELLTNQEAQQWVSGWRLNADSVLWGGHKVFMVKPEEPFQPVKEATQL

Variants of: B1
Test: raw area under fraction-flipped curve 0-4 h after induction (AUC4h, not background-subtracted), DNA-recorder readout of cleavage of the substrate (dimensionless); higher = more cleavage of the substrate by the protease variant
Details: temperature: 34 °C; time window: 0-4 h after rhamnose induction
Procedure: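 In vivo DNA recorder in E. coli TOP10(DE3) ΔrhaA at 34 °C. Each TEVp single-site mutant (parent TEVp 0) is paired with a single-site variant of the 7-mer TEVs (canonical ENLYFQ|S). The substrate sits between flexible linkers in a Bxb1-sfGFP-TEVs-SsrA fusion, so cleavage stabilises Bxb1 and speeds flipping of a recombination array, read by NGS. The value is the raw area under the fraction-flipped curve over 0-4 h after rhamnose induction (AUC4h), with ≥20 reads per time point. It is not background-subtracted; inactive controls average about 0.047.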
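Note: Bxb1 expression induced with 0.2% (w/v) L-rhamnose at OD600 near 0.5, cultures sampled hourly, flipped fraction per protease–substrate barcode pair counted by paired-end Illumina sequencing.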

Variant	area with substrate EALYFQS	area with substrate EDLYFQS	area with substrate EHLYFQS	area with substrate EILYFQS	area with substrate EKLYFQS	area with substrate ELLYFQS	area with substrate EPLYFQS	area with substrate ESLYFQS	area with substrate ETLYFQS	area with substrate EYLYFQS	area with substrate ECLYFQS	area with substrate EELYFQS	area with substrate EMLYFQS	area with substrate ERLYFQS	area with substrate EVLYFQS	area with substrate EWLYFQS	area with substrate EQLYFQS	area with substrate EGLYFQS	area with substrate EFLYFQS
MGESLFKGPRDYNPISSSICHLTNESDGHTTSLYGIGFGPFIITNKHLFRRNNGTLVVQSLHGVFKVKDTTTLQQHLVDGRDMIIIRMPKDFPPFPQKLKFREPQREERICLVTTNFQTKSMSSMVSDTSCTQPSGDGIFWKHWIQTKDGQCGSPLVSTRDGFIVGIHSASNFTNTNNYFTSVPKNFMELLTNQEAQQWVSGWRLNADSVLWGGHKVFMVKPEEPFQPVKEATQL [F133Q]	0.123	0.172	0.0886	0.104	0.0988	0.113	0.134	0.125	0.141	0.0984	–	–	–	–	–	–	–	–	–
MGESLFKGPRDYNPISSSICHLTNESDGHTTSLYGIGFGPFIITNKHLFRRNNGTLVVQSLHGVFKVKDTTTLQQHLVDGRDMIIIRMPKDFPPFPQKLKFREPQREERICLVTTNFQTKSMSSMVSDTSCTYPSGDGIFWKHWIQTKDGQCGSPLVSTRDGFIVGIHSASNFTNTNNYFTSVPKNFMELLTNQEAQQWVSGWRLNADSVLWGGHKVFMVKPEEPFQPVKEATQL [F133Y]	0.128	0.152	0.134	0.0893	–	0.084	–	0.113	0.113	0.0911	0.0535	0.146	0.126	0.11	0.122	0.0901	–	–	–
MGESLFKGPRDYNPISSSICHLTNESDGHTTSLYGIGFGPFIITNKHLFRRNNGTLVVQSLHGVFKVKDTTTLQQHLVDGRDMIIIRMPKDFPPFPQKLKFREPQREERICLVTTNFQTKSMSSMVSDTGCTFPSGDGIFWKHWIQTKDGQCGSPLVSTRDGFIVGIHSASNFTNTNNYFTSVPKNFMELLTNQEAQQWVSGWRLNADSVLWGGHKVFMVKPEEPFQPVKEATQL [S130G]	0.141	0.164	0.0824	0.0962	–	–	–	0.109	0.114	–	–	0.146	0.126	0.0945	0.0894	0.129	0.167	–	–
MGESLFKGPRDYNPISSSICHLTNESDGHTTSLYGIGFGPFIITNKHLFRRNNGTLVVQSLHGVFKVKDTTTLQQHLVDGRDMIIIRMPKDFPPFPQKLKFREPQREERICLVTTNFQTKSMSSMVSDTCCTFPSGDGIFWKHWIQTKDGQCGSPLVSTRDGFIVGIHSASNFTNTNNYFTSVPKNFMELLTNQEAQQWVSGWRLNADSVLWGGHKVFMVKPEEPFQPVKEATQL [S130C]	0.161	–	–	0.122	–	0.109	–	–	–	–	0.155	–	0.209	0.129	0.125	–	0.19	–	–
MGESLFKGPRDYNPISSSICHLTNESDGHTTSLYGIGFGPFIITNKHLFRRNNGTLVVQSLHGVFKVKDTTTLQQHLVDGRDMIIIRMPKDFPPFPQKLKFREPQREERICLVTTNFQTKSMSSMVSDTQCTFPSGDGIFWKHWIQTKDGQCGSPLVSTRDGFIVGIHSASNFTNTNNYFTSVPKNFMELLTNQEAQQWVSGWRLNADSVLWGGHKVFMVKPEEPFQPVKEATQL [S130Q]	0.134	–	0.114	–	0.109	–	–	0.129	–	–	–	–	0.129	0.137	0.105	0.111	–	0.0986	–
MGESLFKGPRDYNPISSSICHLTNESDGHTTSLYGIGFGPFIITNKHLFRRNNGTLVVQSLHGVFKVKDTTTLQQHLVDGRDMIIIRMPKDFPPFPQKLKFREPQREERICLVTTNFQTKSMSSMVSDTSTTFPSGDGIFWKHWIQTKDGQCGSPLVSTRDGFIVGIHSASNFTNTNNYFTSVPKNFMELLTNQEAQQWVSGWRLNADSVLWGGHKVFMVKPEEPFQPVKEATQL [C131T]	0.106	–	–	–	0.122	0.121	–	0.114	–	–	0.12	–	–	–	–	–	–	–	–
MGESLFKGPRDYNPISSSICHLTNESDGHTTSLYGIGFGPFIITNKHLFRRNNGTLVVQSLHGVFKVKDTTTLQQHLVDGRDMIIIRMPKDFPPFPQKLKFREPQREERICLVTTNFQTKSMSSMVYDTSCTFPSGDGIFWKHWIQTKDGQCGSPLVSTRDGFIVGIHSASNFTNTNNYFTSVPKNFMELLTNQEAQQWVSGWRLNADSVLWGGHKVFMVKPEEPFQPVKEATQL [S127Y]	0.117	0.144	–	0.104	–	–	0.218	0.103	0.146	0.11	–	0.139	0.127	0.0963	–	–	0.116	–	–
MGESLFKGPRDYNPISSSICHLTNESDGHTTSLYGIGFGPFIITNKHLFRRNNGTLVVQSLHGVFKVKDTTTLQQHLVDGRDMIIIRMPKDFPPFPQKLKFREPQREERICLVTTNFQTKSMSSMVADTSCTFPSGDGIFWKHWIQTKDGQCGSPLVSTRDGFIVGIHSASNFTNTNNYFTSVPKNFMELLTNQEAQQWVSGWRLNADSVLWGGHKVFMVKPEEPFQPVKEATQL [S127A]	0.131	0.144	0.111	0.105	0.1	0.148	0.143	0.102	–	0.127	0.131	0.11	0.121	0.121	0.132	–	0.118	0.0894	0.113
MGESLFKGPRDYNPISSSICHLTNESDGHTTSLYGIGFGPFIITNKHLFRRNNGTLVVQSLHGVFKVKDTTTLQQHLVDGRDMIIIRMPKDFPPFPQKLKFREPQREERICLVTTNFQTKSMSSMRSDTSCTFPSGDGIFWKHWIQTKDGQCGSPLVSTRDGFIVGIHSASNFTNTNNYFTSVPKNFMELLTNQEAQQWVSGWRLNADSVLWGGHKVFMVKPEEPFQPVKEATQL [V126R]	0.167	0.13	–	0.0982	0.137	–	0.135	0.115	0.186	0.163	0.131	0.148	0.119	0.115	0.0822	0.105	–	0.101	0.123
MGESLFKGPRDYNPISSSICHLTNESDGHTTSLYGIGFGPFIITNKHLFRRNNGTLVVQSLHGVFKVKDTTTLQQHLVDGRDMIIIRMPKDFPPFPQKLKFREPQREERICLVTTNFQTKSMSSKVSDTSCTFPSGDGIFWKHWIQTKDGQCGSPLVSTRDGFIVGIHSASNFTNTNNYFTSVPKNFMELLTNQEAQQWVSGWRLNADSVLWGGHKVFMVKPEEPFQPVKEATQL [M125K]	0.127	–	0.0553	0.0947	0.129	0.106	0.121	0.0864	–	0.124	0.0989	0.129	–	–	–	0.0944	0.0895	0.0883	–
